The source gives no read counts; variants with many changes may rest on few reads.
B1: CPEB3 Ribozyme (parent)
chain: UAACAGGGGGCCACAGCAGAAGCGUUCACGUCGCAGCCCCUGUCAGAUUCUGGUGAAUCUGCGAAUUCUGCUGUAUAUCUC

Variants of: B1
Experiment: self-cleavage, relative activity (ratio to wild type); higher = more cleavage; in vitro, sequencing
How it was run: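 CPEB3 self-cleaving ribozyme mutant libraries were made by rounds of error-prone PCR, barcoded, and transcribed in vitro with T7 RNA polymerase for 5 hours at 37°C. Cleavage occurred during transcription and a 15 min DNase I step before EDTA stop. RNAs were reverse transcribed with template switching and Illumina-sequenced, with DNA sequencing mapping barcodes to variants. Relative activity is the variant's cleaved/total read fraction divided by wild type's (minimum 5 reads), averaged across three batches.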

Row | Variant | self-cleavage
1 | G8U C32G A45U | 0.11
2 | G8C U41A A45G | 0.15
3 | G8U A15G U41C U60C U80A | 0.06
4 | G8C C34U A45U U49A | 0.07
5 | G8A U26G A28C G30A U51C U72C | 0.07
6 | G8C C38U U72G U78C | 0.12
7 | G8U A56G A77U U80C | 0.5
8 | G9A A18C U43A U80C | 0.09
9 | G8U G10C A18G A64U U72C U80A | 0.06
10 | G8A U26C U60A G73U U76C | 0.05
11 | G8A U54C A57G U78C | 0.17
12 | G8U A28G C32U G55A U67C | 0.05
13 | G8A G9A A56G C59A A64G G73C U76G | 0.03
14 | G8U U41C U51C | 0.16
15 | G8U U49C U58C | 0.08
16 | G8C A20G A28G C32U | 0.06
17 | G8A U31C A75U | 0.07
18 | G8C A18G C32U A45G U48C U60A | 0.06
19 | G8A C23A A57G U72C | 0.11
20 | G8U A45U G53U U54G | 0.04
21 | G8A G24C C37U U48C U67C C79U | 0.04
22 | G9A A18G C40U U41A A57U | 0.11
23 | G8U A15G C23G U31A A45U U51C | 0
24 | G8U U25C C38A U72A A77G | 0.03

Row | Variant | self-cleavage
25 | G8A U41C U43C A57G A64G U69A A77G | 0.07
26 | G8A U26A A64G | 0.12
27 | G9A A13G C39A A57C | 0.07
28 | G9A A13U U26C C38G | 0.05
29 | G8C A28G A56G A57C | 0.04
30 | G8U A13U U25C U69C | 0.07
31 | G8U U48A U54C | 0.11
32 | G9A A13G G16A U51G U72C | 0.06
33 | G8A C40U U72C | 0.25
34 | G8A C23G U25G A28U A35G U41A | 0.05
35 | G8U A28U A64U U74A | 0.12
36 | G8U A21G A45G | 0.09
37 | G9A A15G U31C U43A U54C U60C | 0.04
38 | G9A A13G U76A A77U | 0.2
39 | G8U A20U A28C G33C C34U U43C | 0.04
40 | G8U A20G U31C A35U A64U A75G | 0.08
41 | G9A A13G A20U A21G A28G U31C | 0.3
42 | G9A A15G A18G A28C G42A U66A | 0.05
43 | G8U A28G U41C A56G A64G U69C A75G | 0.03
44 | G8U A20U A28G A64G U78C | 0.05
45 | G8A G22U U78C | 0.18
46 | G8A U31C U48A A65G | 0.05
47 | G8A U25G U31C A64G | 0.06
48 | G8U U48C U60A | 0.13

Row | Variant | self-cleavage
49 | G8U G19A G36A U41A U80C | 0.11
50 | G9A A15U A57G A64G | 0.03
51 | G8A U49A U60C U66G | 0.07
52 | G8A U25C A35U A64G | 0.28
53 | G8U U25C U69G | 0.03
54 | G8A G9U A20G U54A | 0.09
55 | G8U G30A U49C | 0.15
56 | G8U A28G U41C U69C | 0.11
57 | G8C A15G G24A U43C | 0.03
58 | G8U A15G C32G A45G A57U | 0.05
59 | G8C A20C G36A U67C | 0.06
60 | G8U A15G A35U U49C U60C C62A | 0.04
61 | G8U U26C A28G A35G G73A U78C | 0.04
62 | G8U C12U C32U A45G A47G A65C | 0.1
63 | G8A U48C A57G | 0.09
64 | G8U U49G U74G | 0.18
65 | G8C U43G U49A U51C | 0.22
66 | G9A A15U U25C U41A U48A | 0.25
67 | G8A G24A G30A U51A | 0.16
68 | G8U A18U A20G | 0.06
69 | G9A A15G C38U A64G | 0.69
70 | G8C U26A A47G U67C U69C | 0.05
71 | G8U C23G U41C G46U A75U | 0.05
72 | G8U A13U A18U C29U U60A U76A | 0.05

Row | Variant | self-cleavage
73 | G8A C29U G33A A35U A57G | 0.03
74 | G8A G19C C32U U49C U66G | 0.03
75 | G8C U41A C59A A65G | 0.07
76 | G8C A13C U51C A65U | 0.04
77 | G8A U25A U69C | 0.31
78 | G9A A15G U26C U41C | 0.34
79 | G8A G10A U25C A64G | 0.17
80 | G8A U31C A35U | 0.18
81 | G8U U25C A35G C39U A77G U78C | 0.04
82 | G9A A15U A20U U25C A65U U69C | 0.04
83 | G9A A13G C44A | 0.17
84 | G8A C29U U41C U69C U74C | 0.04
85 | G8U A18G U25C A45G | 0.37
86 | G8C A13U U25C U26A U41C A45C A57C | 0.04
87 | G9A A15G G52U | 0.43
88 | G8U A20G U69C U80A | 0.04
89 | G8U U25C U26C | 0.07
90 | G8U A15G A45U U67C A75G | 0.1
91 | G8A G19U U25C A45G U66C C79A | 0.04
92 | G8U G33A U43G A45G U69A A75G | 0.08
93 | G8U U41C U43C | 0.07
94 | G8U G9U A18U A56G U80C | 0.07
95 | G9A A15G U54C U72C | 0.14
96 | G8C U31C U80C | 0.08

Row | Variant | self-cleavage
97 | G9A A18G A35C C37U U41C G70C U80A | 0.02
98 | G8U A15U U43C A56U | 0.08
99 | G8U G33A A35C C50U A57G U67C | 0.05
100 | G8U C37U A65C U66C | 0.1
101 | G8C U43C C59U U60C A65G | 0.2
102 | G8C U26C A75G | 0.07
103 | G8U U43A U51A U54G A64U U80A | 0.03
104 | G8U A15C U67C | 0.11
105 | G9A A15C A28U C32U U49C U69G | 0.05
106 | G8A U26A U49C A64U U66C | 0.03
107 | G8U A18G U31C U66G A77U | 0.37
108 | G8U A15G A21G G33A U60A | 0.06
109 | G9A A13U C38U U41A U60A U72C | 0.04
110 | G8U U66G U74C A75U U80C | 0.11
111 | G8C A35U U67C U78C | 0.04
112 | G8U A20U A35C | 0.08
113 | G8C A18G U25C | 0.27
114 | G8C U41G U72A | 0.16
115 | G8U C37U A65C | 0.05
116 | G8C C14A A35U U41C U58A U74A | 0.05
117 | G8U C12A A13C C44A | 0.06
118 | G8A C32U U66C U76C A77G | 0.19
119 | G8U C44U A47G C71A U72C | 0.04
120 | G8A G30A U54A G70C | 0.06

Row | Variant | self-cleavage
121 | G8A U69C A75U | 0.15
122 | G8A U58G A64G C79G | 0.11
123 | G8U A13U A21G U26A A35U U41A A77U | 0.03
124 | G8U A13U A20G C32U A45G U67C U78C | 0.05
125 | G8U A20G C40A A47G U48C U49A U69C | 0.09
126 | G8A C23G U72A U78A | 0.04
127 | G9A A15U U74A | 0.1
128 | G8A C29U U41A A77U | 0.05
129 | G8U A13U G52A A56G G70U U72C | 0.05
130 | G8U A13U A35G | 0.24
131 | G8U C34U A64G U78C | 0.09
132 | G8A U41G A56U A57G | 0.17
133 | G8U A18G U25C A56G U69A U80G | 0.03
134 | G9A A15U A64G U66C | 0.06
135 | G8C A18G A47G A57C | 0.06
136 | G8C C34U U49C U69A | 0.04
137 | G8U A15U U31C A47U U54C U58C | 0.04
138 | G8A G19A U25C A64G C81U | 0.23
139 | G8U A13U C40U A47G U54A A64G | 0.02
140 | G9A A18G G19U A35U C71U | 0.09
141 | G9A A13U A18G U51C | 0.07
142 | G8A U67C U80A | 0.05
143 | G8A U60A A64G | 0.07
144 | G8U U43C A45G | 0.13

Row | Variant | self-cleavage
145 | G8U A28U C62U | 0.15
146 | G8A C27U A47G | 0.08
147 | G8U A18G U43C A45G | 0.05
148 | G9A A15U U74C U80C | 0.07
149 | G8U A13U A15U U26C U72C | 0.06
150 | G8U A21G C23A A28G U69A | 0.11
151 | G8U A13G U72A U76C | 0.06
152 | G8U U25C C34U | 0.11
153 | G8U G10C U25C U58A | 0.04
154 | G8C U31C A45U | 0.03
155 | G9A A13G C14U A20G U41C | 0.41
156 | G8C A56G U69C | 0.08
157 | G8U A15G G30A | 0.2
158 | G8C A28U U66C G70U | 0.05
159 | G8U U31G U43A | 0.13
160 | G8A U25C U78A | 0.51
161 | G8U A15U U26C U49A | 0.13
162 | G8U U31C U60A | 0.09
163 | G9A A13G G19C A28U A47G U74G | 0.36
164 | G8A U43A A56G | 0.09
165 | G9A A18G U25C U26G | 0.1
166 | G8U A20U A35U U43A | 0.1
167 | G8A U31A A64U U66C U69A | 0.06
